Experimental data from PubChem BioAssay AID1347428 (National Center for Advancing Translational Sciences (NCATS), 2020).
“And” between values parts separate entries of the source, which are not always exact repeats. Equal entries are not always repeated. In all, about 91,000 compounds went through this assay and about 290 (0.32%) were called active. This list was built around the results that the source calls inconclusive (neither active nor inactive); the mix of calls is not that of the screen. The call rests on the fitted dose curve; in most records, active means well fitted inhibition curve with a large enough effect; inconclusive means small, poorly fitted or top-dose-only effect; inactive means no such curve, though single readings can be large or run the other way. A potency beside an inconclusive call is a rough fit, not a confirmed value.

These molecules were tested against Single-stranded DNA cytosine deaminase (Homo sapiens) (UniProt Q9GZX7) (assay: Primary qHTS assay for inhibitors of Activation Induced Cytidine Deaminase (AID): AID signal). Settings: AID deamination FRET fluorescence, UDG-coupled, 4 h; activity change, negative = inhibition: at 115 µM (top of the series).
Sequence of UniProt Q9GZX7 (Q9GZX7 whole entry, looked up): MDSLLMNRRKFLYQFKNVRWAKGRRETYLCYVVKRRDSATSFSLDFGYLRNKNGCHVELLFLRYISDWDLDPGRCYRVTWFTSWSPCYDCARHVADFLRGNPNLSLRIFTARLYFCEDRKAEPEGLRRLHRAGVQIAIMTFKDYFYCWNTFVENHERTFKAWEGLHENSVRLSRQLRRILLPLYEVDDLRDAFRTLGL
Further: nearly all actives have a fitted effect of over 25% in size.
On the % scale 0 is the no-effect control and ±100 the full control effect; potency means the concentration at half of the fitted maximal effect; tags describe the fitted curve by direction and shape.

| Structure (SMILES) | Potency | activity change, negative = inhibition |
| --- | --- | --- |
| CCc1cccc(NC(=O)C2CCCN(S(=O)(=O)c3cccs3)C2)c1 (centres undefined) | inconclusive: 50.1 µM [inhibitor, partial curve, poor fit] | – |
| CCn1cc(C(=O)N2CCN(c3ccc(F)cc3)CC2)c(=O)c2cc(S(=O)(=O)N(C)C3CCCCC3)ccc21 | inconclusive: 14.1 µM [inhibitor, partial curve, poor fit] | – |
| COc1cc(C(c2c(C)[nH][nH]c2=O)c2c(C)[nH][nH]c2=O)ccc1OC(=O)c1cccc(C)c1 | active: 22.4 µM | – |
| COc1ccc(Cn2cc(C(=O)c3ccc(C)cc3)c(=O)c3cc(OC)c(OC)cc32)cc1 | active: 44.7 µM | – |
| CC(NC(=O)CN1CCN(S(=O)(=O)c2ccc(C(C)(C)C)cc2)CC1)c1cccs1 (centres undefined) | inconclusive: 39.8 µM [inhibitor, partial curve, poor fit] | – |
| CC(C)CCNC(=O)Cn1c(=O)n(CCC(C)C)c(=O)c2sccc21 | – | inactive: -2.09% |
| O=C1CCC(C(=O)Nc2ccc(Cl)c(Cl)c2)N1 (centres undefined) | – | inactive: 4.93% |
| CCCCCn1c(-c2cccc(OC)c2)nc2c1c(=O)[nH]c(=O)n2CCCC | – | inactive: -4.75% |
| Cc1nc2c(-c3ccccc3)c(C)nn2c(C)c1CCC(=O)NCc1ccc(F)cc1 | inconclusive: 22.4 µM [inhibitor, full curve, poor fit] | – |
| CCOC(=O)C1=C(CN2CCN(c3ccccc3F)CC2)NC(=O)NC1c1ccc(Cl)cc1 (centres undefined) | inconclusive: 44.7 µM [inhibitor, partial curve] | – |
| Cc1ccccc1NCc1cccn1-c1nnc(N2CCC(C)CC2)s1 | inconclusive: 28.2 µM [inhibitor, full curve, poor fit] | – |
| COc1ccccc1CNC(=O)c1ccc2c(c1)CCN2S(=O)(=O)c1ccccc1 | inconclusive: 56.2 µM [inhibitor, partial curve, poor fit] | – |
| COc1ccc2c(c1)CC/C(=C\c1ccc(Br)o1)C2=O | – | inactive: 30.4% |
| Nc1c(C(=O)c2ccc(F)cc2)sc(Nc2ccccc2F)c1S(=O)(=O)c1ccc(Br)cc1 | inconclusive: 10 µM [inhibitor, full curve, poor fit] | – |
| Cc1cc(C(=O)O)c(C)[nH]1 | – | inactive: 9.99% |
| CCOc1ccc(C(=O)c2cn(CC(=O)Nc3ccc4c(c3)OCO4)c3ccc(OCC)cc3c2=O)cc1 | – | inactive: -4.74% |
| COc1ccc(S(=O)(=O)N(CC(=O)Nc2cccc(C(F)(F)F)c2)c2ccc(C)cc2)cc1 | active: 25.1 µM | – |
| Cc1nc(C)c(-c2csc(Nc3ccc(N(C)C)cc3)n2)s1 | inconclusive: 56.2 µM [inhibitor, partial curve, poor fit] | – |
| CCN(C(=O)c1cc2cc3ccc(OC)cc3nc2o1)c1cccc(C)c1 | inconclusive: 56.2 µM [inhibitor, partial curve, poor fit] | – |
| CCc1ccc(-c2cc(C(=O)O)c3ccc(C)c(C)c3n2)cc1 | – | inactive: -14.2% |
| CCc1ccccc1NC(=O)c1ccc2c(c1)CCN2S(C)(=O)=O | inconclusive: 79.4 µM [inhibitor, partial curve] | – |
| CCCCC1CCC(c2ccc(C(=O)O)cc2)CC1 (centres undefined) | inconclusive: 79.4 µM [inhibitor, partial curve, poor fit] | – |

| Structure (SMILES) | Potency | activity change, negative = inhibition |
| --- | --- | --- |
| COc1ccc(C)cc1NC(=O)CSc1nc2ccccc2nc1N1CCOCC1 | inconclusive: 20 µM [inhibitor, full curve, poor fit] | – |
| COc1ccc(CCNc2nccn(-c3ccc(C)c(C)c3)c2=O)cc1OC | inconclusive: 56.2 µM [inhibitor, partial curve, poor fit] | – |
| CC(=O)N1CCc2cc(S(=O)(=O)NC(Cc3ccccc3)C(=O)Nc3cccc(C)c3)ccc21 (centres undefined) | inconclusive: 28.2 µM [inhibitor, partial curve, poor fit] | – |
| CCCCN(C)C(=O)c1ccc2c(c1)N(Cc1ccc(F)cc1)C(=O)c1ccccc1S2(=O)=O | inconclusive: 89.1 µM [inhibitor, partial curve, poor fit] | – |
| CC(C)Oc1ccc(CNC(=O)C2CCCCN2S(=O)(=O)c2ccc(F)cc2)cc1 (centres undefined) | inconclusive: 79.4 µM [inhibitor, partial curve, poor fit] | – |
| O=C1CC(c2ccc(Cl)cc2)c2cc3c(cc2N1)OCCO3 (centres undefined) | inconclusive: 89.1 µM [inhibitor, single point] | – |
| CCCn1c(=O)c2ccccc2n(CC(=O)N(CC)c2cccc(C)c2)c1=O | – | inactive: -0.763% |
| CCOC(=O)C(C)Oc1cc2oc(=O)cc(C)c2cc1Cl (centres undefined) | – | inactive: -7.54% |
| CCc1ccccc1NC(=O)C(CC)Oc1ccccc1-c1nnc(-c2ccccc2)o1 (centres undefined) | inconclusive: 22.4 µM [inhibitor, full curve, poor fit] | – |
| O=C(CSc1nc2ccccc2nc1Cc1ccccc1)Nc1ccccc1C(F)(F)F | inconclusive: 100 µM [inhibitor, partial curve, poor fit] | – |
| COc1ccc(N2CCN(C(=O)C(C)n3c(=O)cc(C(F)(F)F)c4c(C)nn(C)c43)CC2)cc1 (centres undefined) | inconclusive: 22.4 µM [inhibitor, full curve, poor fit] | – |
| COC(=O)c1cccc(S(=O)(=O)Oc2ccc3ccc(=O)oc3c2)c1 | – | inactive: -4.49% |
| CC(=O)c1ccc(NC(=O)NCCCN(C)CC(F)(F)F)cc1 | – | inactive: 7.31% |
| COc1ccccc1-n1c(=O)c2c3c(sc2n(Cc2ccccc2F)c1=O)CN(C(C)=O)CC3 | inconclusive: 50.1 µM [inhibitor, partial curve, poor fit] | – |
| CCc1nn(CCCC(=O)NCc2cc(Br)ccc2OC)c(=O)c2cc3occc3n12 | inconclusive: 79.4 µM [inhibitor, partial curve, poor fit] | – |
| CC(=O)Oc1ccc2c(=O)c(-c3nc4ccccc4s3)c(C)oc2c1 | – | inactive: 1.94% |
| O=C(CN1C(=O)COc2ccc(S(=O)(=O)N3CCCCCC3)cc21)NCCc1ccccc1 | inconclusive: 89.1 µM [inhibitor, single point] | – |
| O=C(CCc1nc2ccccc2[nH]1)NC1CCSc2c(F)cccc21 (centres undefined) | – | inactive: -5.31% |
| CC(C)CNc1oc(-c2ccc([N+](=O)[O-])cc2)nc1C#N | – | inactive: -10.6% |
| CC(=O)c1ccc(C(=O)N(Cc2cccnc2)c2nc3c(C)c(C)ccc3s2)cc1 | inconclusive: 70.8 µM [inhibitor, single point] and inconclusive: 79.4 µM [inhibitor, partial curve, poor fit] | – |
| CCC12CN3CC(CC)(CN(C1)C3c1ccc(O)c(OC)c1)C2O (centres undefined) | – | inactive: -3.38% |
| Cc1c(Cl)cccc1NS(=O)(=O)c1ccc(NS(=O)(=O)c2ccc3c(c2)OCCO3)cc1 | inconclusive: 56.2 µM [inhibitor, partial curve, poor fit] | – |

| Structure (SMILES) | Potency | activity change, negative = inhibition |
| --- | --- | --- |
| CCOc1cccc2c(C)nc(Nc3nc(C)c(CC)c(=O)[nH]3)nc12 | active: 50.1 µM | – |
| COC(=O)c1nc2n(n1)C(c1cc(OC)ccc1OC)C=C(c1ccc(Br)cc1)N2 (centres undefined) | inconclusive: 17.8 µM [inhibitor, partial curve, poor fit] | – |
| NCC(c1ccco1)N1CCCC1 (centres undefined) | – | inactive: 8.8% |
| O=C(c1cc(F)cc(F)c1)N(Cc1ccco1)C1CC1 | – | inactive: 4.07% |
| Fc1cccc(-c2nnn3c2nc(NCc2ccc4c(c2)OCO4)c2ccccc23)c1 | inconclusive: 2.82 µM [inhibitor, full curve, poor fit] | – |
| CN(C(=O)c1ccc2c(c1)N(Cc1ccc(F)cc1)C(=O)c1ccccc1S2(=O)=O)C1CCCCC1 | inconclusive: 50.1 µM [inhibitor, partial curve, poor fit] | – |
| CCOCCCn1c(=N)c(C(=O)NC(C)c2ccccc2)cc2c(=O)n3cccc(C)c3nc21 (centres undefined) | active: 22.4 µM | – |
| COc1ccc(C2Nc3ccccc3C(=O)N2c2ccc(C)cc2)cc1CN1CCOCC1 (centres undefined) | – | inactive: 0.31% |
| COc1ccc(N2C(=O)CCSC23C(=O)N(Cc2ccc(F)cc2)c2ccccc23)cc1 (centres undefined) | inconclusive: 50.1 µM [inhibitor, partial curve, poor fit] | – |
| O=C(c1ccc2c(c1)N(Cc1ccc(Cl)cc1)C(=O)c1ccccc1S2(=O)=O)N1CCN(Cc2ccccc2)CC1 | inconclusive: 17.8 µM [inhibitor, full curve, poor fit] | – |
| CCOc1ccc(S(=O)(=O)c2c(C(=O)c3ccc(C)c(C)c3)cnc3ccccc23)cc1 | inconclusive: 50.1 µM [inhibitor, partial curve, poor fit] | – |
| CCCNc1ncnc2c1c(-c1ccccc1)cn2-c1ccc(OCC)cc1 | inconclusive: 15.8 µM [inhibitor, full curve, poor fit] | – |
| CCOc1ccc2c(c1)C(NC(C)=O)C(=O)N2CCOc1ccccc1 (centres undefined) | – | inactive: -3.06% |
| Cc1cccc(N2CCN(C(=O)c3cccn3-c3nnc(N4CCCCC4)s3)CC2)c1C | inconclusive: 56.2 µM [inhibitor, partial curve, poor fit] | – |
| Cc1ccc(Cl)cc1N1CCN(C(=O)c2nn(C)c3c2CS(=O)(=O)c2ccccc2-3)CC1 | inconclusive: 22.4 µM [inhibitor, full curve, poor fit] | – |
| O=c1ccc2ccc(OCc3nc(-c4ccccc4)no3)cc2o1 | – | inactive: 8.36% |
| Cc1ccc2c(c1)c1c(c(=O)n(Cc3ccccc3)c(=O)n1Cc1ccccc1F)n2C | inconclusive: 63.1 µM [inhibitor, partial curve, poor fit] | – |
| CN(c1ccc(F)cc1)S(=O)(=O)N1CCCC(C(=O)NCc2ccccc2Cl)C1 (centres undefined) | inconclusive: 56.2 µM [inhibitor, partial curve, poor fit] | – |
| COc1cccc(-c2nnc(SCC(=O)N(C)C3CCCCC3)o2)c1 | – | inactive: -4.03% |
| Cc1cccc(N2CCN(C(=O)C3CCN(C(=O)c4cc5sccc5n4C)CC3)CC2C)c1 (centres undefined) | inconclusive: 31.6 µM [inhibitor, full curve, poor fit] | – |
